# According to PubChem BioAssay AID743279 (National Center for Advancing Translational Sciences (NCATS), 2014):
# Hit rate of the full screen: of about 360,000 compounds, about 17,000 (4.7%) were called active. Inconclusive results, whose numbers are uncertain, are shown with a selection of clear calls. Rule as the data show it: active = activity change below about -50%; inconclusive = mostly about -30% to -49%; inactive = weaker than that.
# Assay: qHTS for Inhibitors of Inflammasome Signaling: IL-1-beta AlphaLISA Primary Screen
# Conditions: THP-1 LPS/ATP IL-1B secretion, 16 h; at 57.5 µM, stronger effect = lower value
# In short: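 THP-1 cells pretreated 1 hr with compounds (up to 57.5 uM final), then stimulated with LPS (250 ng/mL final) plus ATP (1.25 mM final); secreted IL-1B measured by AlphaLISA after 16 hr, decreased signal indicating inhibition.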
# % is scaled to controls: 0 for no effect and ±100 for the full control effect.
row,Compound,activity change
1,O=C(N/N=C/C(Br)=C\c1ccccc1)c1ccco1,inconclusive: -38.4%
2,Cc1ccc2c(c1)C(=O)C(=O)N2CCCOc1ccccc1C,inconclusive: -31.9%
3,Cc1ccc(Cc2c[nH]c(=S)s2)cc1,inactive: 0.948%
4,Cc1ccc(NC(=O)c2ccc3c(=O)n4c(nc3c2)CCCCC4)cc1F,inconclusive: -45.1%
5,COc1ccc(CNC(=O)CN2CCC(C(=O)c3ccc(OC)cc3)CC2)cc1,inconclusive: -32%
6,CCC(=O)Nc1cccc(NC(=S)NC(=O)c2ccccc2Cl)c1,inconclusive: -33.7%
7,COc1ccc(NS(=O)(=O)c2cc(NC(=O)c3ccccn3)ccc2OC)cc1Br,active: -56.4%
8,Cc1ccc(N(CC(=O)NCc2ccc(F)cc2)C(=O)CCC(=O)Nc2ccccn2)cc1C,inconclusive: -42.4%
9,CCOC(=O)CN(C(=O)COC(=O)C1=NNC(=O)CC1)c1ccc(F)cc1,inactive: -1.35%
10,O=C(CN1CCN(CC(=O)Nc2ccc(F)cc2)CC1)NCC1(N2CCOCC2)CCCCC1,inactive: 6.04%
11,Cc1ccc(NC(=O)N2CCc3ccccc32)cc1C,inconclusive: -49.2%
12,O=C1NC(=S)N(C(=O)c2ccc(F)cc2)/C1=C/c1ccccc1,inactive: -15.8%
13,CCN(CC)C(=O)[C@H]1CC(CC(=O)NCC23CC4CC(CC(C4)C2)C3)C(=O)N2CCc3c([nH]c4ccccc34)[C@]12C (stereo not given in full),inconclusive: -38.1%
14,COc1ccc(C(=O)c2ccc(N3CCN(C(=O)c4ccc(F)cc4)CC3)c(F)c2)cc1Br,inconclusive: -48.9%
15,Cc1ccccc1N1C(=O)c2cccc3cccc(c23)C1=O,inconclusive: -33.9%
16,N#Cc1cc2c(nc1SCc1ccncc1)CCC2,inconclusive: -31.4%
17,Cc1ccc(S(=O)(=O)Nc2ccc3c(c2)nc(CCN2CCCC2)n3C)cc1,active: -76%
18,C(#Cc1ccccc1)C[N+]1(CC#Cc2ccccc2)CCCCC1,active: -86.3%
19,COc1ccc(C2C3=C(CC(C)(C)CC3=O)Oc3ncn(Cc4ccccc4)c(=N)c32)cc1 (stereo not given),active: -54.8%
20,O=C1CCS/C(=N\N=C\c2ccc(Cl)cc2Cl)N1,inactive: -16%
21,Nc1c(Cl)cc(C(=O)NC2CC2)cc1Cl,inconclusive: -41.4%
22,COc1ccc(/C=N/OCC(=O)Nc2cc(C)on2)cc1OC,inactive: -3.85%

row,Compound,activity change
1,O=C1N[C@@H](Cc2ccccc2)C(=O)N2[C@@H]3N(S(=O)(=O)c4ccccc4)c4ccccc4[C@]3(Br)C[C@@H]12,inconclusive: -38.6%
2,Cc1nc(N(CCO)C2CCCCC2)c2nnn(Cc3ccccc3)c2n1,inconclusive: -48.5%
3,COc1ccccc1C1c2ccc3ccccc3c2Oc2ncn(CCCO)c(=N)c21 (stereo not given),active: -96.8%
4,Cc1cc(N)n2nc(-c3ccccc3)cc2n1,active: -71.8%
5,Cc1c(Cl)cccc1-c1ccc(CNCc2ccccn2)o1,inconclusive: -42.8%
6,CCCCNC(=S)N(C)/N=C/c1ccc2c(c1)OCO2,inconclusive: -37.9%
7,O=C(O)c1cc(O)c2c(c1)[C@@H]([C@H]1c3cc(C(=O)O)cc(O)c3C(=O)c3c(O[C@@H]4O[C@H](CO)[C@@H](O)[C@H](O)[C@H]4O)cccc31)c1cccc(OC3O[C@H](CO)[C@@H](O)[C@H](O)[C@H]3O)c1C2=O (stereo not given in full),inactive: -3.02%
8,COc1cc(/C=N/Nc2nc(Nc3ccccc3)nc(N3CCOCC3)n2)ccc1OC(=O)c1ccco1,inconclusive: -31.5%
9,CCOC(=O)C1CCCN(C(=O)Cn2nc(C)n3c(cc4c(OC)cccc43)c2=O)C1 (stereo not given),inconclusive: -38.6%
10,CC(OC(=O)CNC(=O)c1ccc(Cl)c([N+](=O)[O-])c1)C(=O)NC1CCCCC1C (stereo not given),inconclusive: -33.5%
11,Cc1ccc(C(=O)O)c(C(=O)Nc2nc3ccccc3s2)c1,inactive: 11.8%
12,CN(C)c1ccc(NC(=O)c2ccc(N3CCOCC3)nc2)cc1,inconclusive: -37.3%
13,CNC(=O)c1ccc(NC(=O)c2cc(S(=O)(=O)N(C)C)ccc2N2CCCC2)cc1,inactive: 0%
14,O=C(N/N=C/c1c(F)cccc1Cl)c1cc(C2CC2)[nH]n1,inactive: -12%
15,O=C(Cc1ccc(S(=O)(=O)N2CCOCC2)s1)N1CCN(c2ccc(C(F)(F)F)cc2[N+](=O)[O-])CC1,inconclusive: -34.9%
16,CCCCn1c(N)c(N(CC(C)C)C(=O)CSCC(=O)Nc2ccc(C)cc2)c(=O)[nH]c1=O,inactive: -13.2%
17,CN1CCN(C(=O)/C(=C/c2cn(S(=O)(=O)N(C)C)c3ccccc23)NC(=O)c2ccccc2)CC1,inconclusive: -30.7%
18,Cc1nn(-c2cc(N3CCCCCC3)ccc2[N+](=O)[O-])c(=O)c2ccccc12,inactive: -3.38%
19,Nc1cccc(S(=O)(=O)c2cccc(N)c2)c1,inactive: 1.54%
20,CCOC(=O)C1(CCCc2ccccc2)CCN(C(=O)Cc2nonc2C)CC1,inconclusive: -34.7%
21,Cc1c(Cl)cccc1NC(=O)c1cc(-c2ccccc2O)n[nH]1,active: -60.4%
22,COc1cc(OC)cc(C(=O)Nc2ccc(S(=O)(=O)N3CCOCC3)cc2)c1,inconclusive: -30.9%

row,Compound,activity change
1,CCOc1ccc(OCC)c(NC(=O)C2CCCN(S(=O)(=O)c3cnc[nH]3)C2)c1 (stereo not given),inactive: -4.68%
2,CCCCC1(Cc2ccc([N+](=O)[O-])cc2)C(=O)N(c2ccccc2)N(c2ccccc2)C1=O,active: -57.9%
3,CC(C)n1ncc2c(C(=O)NCCc3ccc(F)cc3)cc(C3CC3)nc21,inconclusive: -45.5%
4,COc1ccnc(Oc2ccc(F)cc2)c1C#N,inconclusive: -32%
5,COc1ccc(-c2nc(SCC(=O)NCc3ccco3)c(-c3ccccc3)[nH]2)cc1OC,inactive: -18.4%
6,Cc1oc(-c2ccccc2F)nc1CSCC(=O)NC1CC1,inactive: 0%
7,CC(C)(C)c1cnnn1-c1ccc(C=O)cc1,inactive: 12.9%
8,COC(=O)c1ccccc1-n1cccc1C(=O)NP(=O)(N1CCOCC1)N1CCOCC1,inactive: 2.54%
9,COc1cc(-c2cc(=O)c3c(O)c(OC)c(OC)cc3o2)cc(OC)c1O,inactive: -18.7%
10,CNS(=O)(=O)c1ccc(NC(=O)c2cncc(Br)c2)cc1,inconclusive: -47.6%
11,O=C(Nc1ccccc1)C(Cl)C(=O)c1ccccc1 (stereo not given),inconclusive: -36.1%
12,CCOc1ccc(N(CC(=O)Nc2cc(Cl)ccc2C)S(C)(=O)=O)cc1,inactive: 19.4%
13,COC(=O)c1ccccc1NC(=O)C12CC3CC(C1)CC(n1cnc(Cl)n1)(C3)C2,inconclusive: -40.7%
14,COc1ccc(C)c2sc(N(CCCN(C)C)C(=O)c3ccc(S(=O)(=O)N(C)C)cc3)nc12,inconclusive: -36%
15,CC(C)C[C@@H](COCc1cccc(Cl)c1)N1CCN(C(=O)c2cccc(C(F)(F)F)c2)CCC1=O,inconclusive: -39.8%
16,Clc1ccc(SCNc2ccccc2Cl)cc1,inconclusive: -34%
17,Cc1csc(NC(=O)C2CCCN(S(=O)(=O)c3ccc4c(c3)oc(=O)n4C)C2)n1 (stereo not given),inactive: 8.92%
18,CCOC(=O)c1cc(C#N)c(SCC(N)=O)[nH]c1=O,inconclusive: -41.6%
19,COc1cc(NC(=O)c2sc3nc(C)nc(N4CCOCC4)c3c2C)cc(OC)c1OC,inconclusive: -39.5%
20,Cc1cc(C(=O)CSc2nnc(-c3cccs3)n2Cc2ccccc2)c(C)n1C,inconclusive: -32.1%
21,Cc1c(N2CCCC2)cc2c(c1N)C(C)(C)CC2(C)C,inactive: 21.1%
22,CCC(=O)N1CCCC(C)(C(=O)Nc2ccc(OC(F)F)cc2)C1 (stereo not given),inactive: 56.9%

row,Compound,activity change
1,O=C(c1ccccc1)c1ccc(N2CCN(C(=O)c3ccc(F)cc3F)CC2)c(F)c1,inconclusive: -30%
2,CC(C)c1ccc(Nc2nnc(SC3CCOC3=O)s2)cc1 (stereo not given),inconclusive: -37.5%
3,COc1ccc(-c2nnc3sc(C4CCCCC4)nn23)cc1OC,inconclusive: -30.4%
4,O=C(CN(Cc1ccccc1Cl)C(=O)Cn1nnc(-c2cccs2)n1)NCC1CCCO1 (stereo not given),inactive: -4.54%
5,O=C(N/N=C/c1ccc(N2CCOCC2)s1)c1ccc(NS(=O)(=O)c2cccs2)cc1,inconclusive: -33.9%
6,Cc1cc(C)c2nc(Cl)c(Cl)nc2c1,inactive: 3.23%
7,CNC(=S)N1N=C(c2cccs2)CC1c1ccc(F)cc1 (stereo not given),active: -51%
8,CC(c1ccccc1)C(OC(=O)c1cccc([N+](=O)[O-])c1C(=O)O)c1ccccc1 (stereo not given),inactive: -4.24%
9,CCCn1c(SCC(=O)NC2CC2)nnc1-c1ccccn1,inactive: -5.7%
10,O=C(CCN1CCOCC1)c1ccccc1,active: -72.2%
11,CCC(CC)C(=O)N(C)c1c(C)nc2c(OCCC3CCCCC3)cccn12,inconclusive: -40.5%
12,CCN(CC)c1ccc(NC(=O)CN2CCN(c3nc(C)cc(C)n3)CC2)cc1,inconclusive: -32.4%
13,CCC1Oc2ccc(C)cc2N(CC(=O)N(Cc2cccnc2)Cc2ccc(C)o2)C1=O (stereo not given),inconclusive: -34%
14,Nn1c(C2CCC2)nc2cc(Cl)ccc2c1=O,inconclusive: -38.2%
15,Cc1cccc(C(=O)Nc2cc(S(=O)(=O)N3CCOCC3)ccc2N2CCCCC2)c1,inconclusive: -33.5%
16,COc1cc(NC(=O)c2cccc(C)c2)c(OC)cc1NC(=O)CN1CCOCC1,inconclusive: -44.3%
17,CC(=O)Nc1ccc(C=C(C(C)=O)C(C)=O)cc1,inconclusive: -40.5%
18,CCN(C(=O)Cc1cccs1)c1nnc(-c2cc(OC)c(OC)c(OC)c2)s1,inconclusive: -37.1%
19,CCC(=O)c1ccc(OCC(O)CN2CCOCC2)cc1 (stereo not given),inactive: 15.3%
